Data taken from PubChem BioAssay AID651820 (National Center for Advancing Translational Sciences (NCATS), 2012).
Among all 340,000 compounds or so, about 12,000 (3.5%) were called active. Inconclusive means that the source gave no clear call. Such entries were picked first, then a sample of the others. The call rests on the fitted dose curve; in most records, active means well fitted inhibition curve with a large enough effect; inconclusive means small, poorly fitted or top-dose-only effect, or another doubt; inactive means no such curve, though single readings can be large or run the other way. No potency is given beside an inconclusive call; the fits are too rough.

Experiment: qHTS Assay for Inhibitors of Hepatitis C Virus (HCV)
Details: Huh7.5.1 HCVcc-Cre (HCVcc is cell-culture hepatitis C virus) infection, luciferase reporter, 44 h; series mostly up to 41.8 µM
Method in brief: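 Infectious HCVcc-Cre (~0.5 moi) was added to cells just after compound, with cells seeded 4 h earlier at 1,000 per well. Luciferase activity after 44 h culture reported infection; substrate was incubated 15 min at room temperature before reading.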
Potency means the concentration at half of the fitted maximal effect; tags describe the fitted curve by direction and shape.

| Structure (SMILES) | Potency |
| --- | --- |
| COc1ccc(Cc2noc(CN3CCN(c4ccc(Cl)cn4)CC3)n2)cc1OC | inconclusive [inhibitor, single point] |
| COc1cc(C(=O)NC(=S)Nc2ccc(NC(=O)c3ccco3)cc2)cc(OC)c1OC | inconclusive [inhibitor, partial curve] |
| CC(=O)c1ccc(N2CCN(CC(O)COC(c3ccccc3)c3ccccc3C)CC2)cc1 (centres undefined) | active: 11.2 µM |
| CCN(CC)c1ccc(C(=O)Nn2cnc3ccccc3c2=O)cc1 | inactive |
| CCCCCCOC(=O)c1ccc(N)cc1 | inactive |
| O=C(C1CCC(CNS(=O)(=O)c2cccc3cccnc23)CC1)N1CCc2ccccc21 (centres undefined) | inconclusive [inhibitor, single point] |
| c1ccc(Cn2cc(-c3ccccc3)cn2)cc1 | inactive |
| CC(=O)Nc1ccc(Nc2cc(C)nc3c(-c4ccccc4)c(C)nn23)cc1 | inconclusive [inhibitor, partial curve] |
| Cc1cc(C)cc(NC(=O)COc2coc(CN3CCc4ccccc4C3)cc2=O)c1 | inconclusive [inhibitor, full curve, poor fit] |
| COc1ccc(-c2nc3scc(-c4ccc(OC)c(OC)c4)c3c(=O)o2)cc1 | inconclusive [inhibitor, single point] |
| COc1ccc(C(=O)N/N=C/c2ccccc2OC(=O)c2ccccc2)cc1 | inconclusive [inhibitor, single point] |
| CCOc1cc(N2CCOCC2)c(OCC)cc1NC(=O)Cc1cccc(OC)c1 | inactive |
| O=C(OCCOc1ccccc1)c1cc(S(=O)(=O)N2CCOCC2)ccc1Cl | inactive |
| Cc1cc(N2CCC(C(=O)N3CCN(c4cccc(C)c4C)CC3)CC2)n2ncnc2n1 | inconclusive [inhibitor, partial curve, poor fit] |
| O=C1COc2ccc(C(=O)CSc3nnc(NCc4ccccc4)s3)cc2N1 | inconclusive [inhibitor, single point] |
| O=C(Nc1cccc(NC(=O)c2ccc(-c3cccc(Br)c3)o2)c1)c1ccco1 | active: 3.55 µM |
| Oc1ccc2ccccc2c1CN1CCCC1 | inactive |
| COc1c(N2CCN(C(=S)Nc3ccc(F)cc3)C(C)C2)c(F)cc2c(=O)c(C(=O)O)cn(C3CC3)c12 (centres undefined) | inactive |
| CC(=O)Nc1ccc(NC(=O)C/C(C)=N/NC(=O)COc2cc(C)c(Br)cc2Br)cc1 | inactive |
| COc1ccc(CCNC(=O)COc2cc(O)c3c(c2)OC(C)(C)CC3=O)cc1 | inconclusive [inhibitor, full curve] |
| COC(=O)c1ccc(/C=C2/SC(=S)N(CCCC(=O)Nc3ccccn3)C2=O)cc1 | inactive |
| Cc1sc2nc(C3CC3)nc(N3CCN(C(=O)c4ccc(F)cc4)CC3)c2c1C | inconclusive [inhibitor, single point] |
| O=C(CN1CCCC1)N1c2ccccc2Sc2ccc(C(F)(F)F)cc21 | inconclusive [inhibitor, single point] |

| Structure (SMILES) | Potency |
| --- | --- |
| COc1cccc2cc(C(=O)OCC(=O)NC3CCCC(C)C3C)c(=O)oc12 (centres undefined) | inconclusive [inhibitor, full curve, poor fit] |
| COc1ccc(/C=N/NC(=O)COc2ccccc2-c2ccccc2)cc1 | active: 5.62 µM |
| COC(=O)C1=C(C)NC(C)=C(C(=O)OC)C1c1ccccc1[N+](=O)[O-] | inconclusive [inhibitor, full curve] |
| CCOC(=O)C(/C=C(\C#N)C(=O)OCC)=C(/N)N1CCN(c2ccc(Cl)cc2)CC1 | inconclusive [inhibitor, single point] |
| CC(C)c1oc(=O)cc2c1[C@@H](O)[C@H]1OC(=O)[C@@]3(C)C[C@@H](O)[C@@H](O)[C@@]2(C)C13 (some centres undefined) | inconclusive [inhibitor, full curve] |
| CCC(CO)NS(=O)(=O)c1cc(-c2nn(C)c(=O)c3ccccc23)ccc1C (centres undefined) | inconclusive [inhibitor, partial curve] |
| CCc1ccc2nc(NC(=O)C3CSC4(C)CCC(=O)N34)sc2c1 (centres undefined) | inconclusive [inhibitor, single point] |
| CN(/N=C/c1cc(Cl)cc(Cl)c1O)C(=S)NC(C)(C)C | inconclusive [inhibitor, single point] |
| Cc1ccc(C)c(NC(=O)C[n+]2ccccc2)c1 | inactive |
| COc1ccc(Cl)cc1NC(=O)C1Cc2ccccc2CN1S(C)(=O)=O (centres undefined) | inactive |
| CCc1ccc(NC(=O)Cn2c3[n+](c4c(F)c(F)ccc42)CCCCC3)cc1 | inconclusive [inhibitor, single point] |
| CCOC(=O)Nc1cccc(OCC(=O)Nc2ccc(OC)cc2OC)c1 | inconclusive [inhibitor, single point] |
| O=C(Nc1cccc(NC(=O)c2cccnc2)c1)c1ccccc1 | inactive |
| CC(NC(=O)c1ccc(CS(=O)(=O)c2ccc(Cl)cc2)o1)c1ccc2c(c1)OCCO2 (centres undefined) | inconclusive [inhibitor, single point] |
| COc1ccc(F)c(CN2CCC(n3nccc3NC(=O)CCCc3ccccc3)CC2)c1 | inconclusive [inhibitor, single point] |
| CCn1c(SCC(=O)Nc2ncc(C(F)(F)F)cc2Cl)nnc1-c1cccc(C)c1 | inactive |
| CCOc1ccc(OCc2ccc(C(=O)NC(C)(C)C)o2)cc1 | inconclusive [inhibitor, partial curve] |
| O=C(Nc1cccnc1)C1CCN(S(=O)(=O)c2ccc(Cl)cc2)CC1 | inactive |
| COc1ccc2oc(C(=O)OCC(=O)NCc3ccccc3OC)c(C)c2c1 | inconclusive [inhibitor, single point] |
| O=C(c1ccc(OC2CCN(C/C=C/c3ccc(F)cc3)CC2)cc1)N1CCCCC1 | inconclusive [inhibitor, single point] |
| CCOc1ccc(-c2nnc(N3CCCCC3)c3ccccc23)cc1 | inconclusive [inhibitor, single point] |
| COc1ccc(C2CC(c3ccccc3)=NN2C(=O)CN2CCN(Cc3ccccc3)CC2)cc1 (centres undefined) | inconclusive [inhibitor, partial curve] |
| Nc1ccccc1SCc1csc(-c2ccc(Cl)cc2)n1 | inconclusive [inhibitor, single point] |

| Structure (SMILES) | Potency |
| --- | --- |
| CC(=O)Nc1ccc(NC(=O)CSc2nc3ccccc3nc2N2CCC(C)CC2)cc1 | inactive |
| O=C(Nc1cccc(C(F)(F)F)c1)OC1CN2CCC1CC2 (centres undefined) | inactive |
| CCOC(=O)C1=C(C)NC(C)=C(C(=O)OCC)C1C(=O)OCC(=O)NCc1ccccc1 | inconclusive [inhibitor, single point] |
| COc1ccc(CCN(C)C(=O)c2cc(S(=O)(=O)NCc3ccccc3)ccc2C)cc1OC | active: 8.91 µM |
| Cc1cc(C(F)(F)F)c2c(n1)sc1c(O)cc(=O)[nH]c12 | inconclusive [inhibitor, full curve, poor fit] |
| CC(C)C(C)(C#N)NC(=O)CSc1nc2scc(-c3ccco3)c2c(=O)n1-c1ccccc1 (centres undefined) | inconclusive [inhibitor, single point] |
| CCc1ccc(NC(=S)Nc2cccc3cnccc23)cc1 | active: 10 µM |
| COc1cccc(N2CCN(C(=O)c3cccn4c(=O)c5c(C)c(C)sc5nc34)CC2)c1 | inactive |
| COCC1CCCN(Cc2cn(Cc3ccccc3)nc2-c2cc3ccccc3o2)C1 (centres undefined) | inconclusive [inhibitor, single point] |
| Cn1nc(C(F)(F)F)c(/C=N/OC(=O)c2ccccc2Cl)c1SCc1ccccc1Cl | inconclusive [inhibitor, single point] |
| CN1CCN(c2ccc([N+](=O)[O-])c(-n3nc(-c4ccccc4)c4ccccc4c3=O)c2)CC1 | active: 4.47 µM |
| CC(C)C[C@H]1CNC(=O)C(=O)N1CC1CCN(CCC(C)(C)C)CC1 | inconclusive [inhibitor, full curve, poor fit] |
| Cc1cc(/C=C(\C#N)C(=O)Nc2ccccc2)c(C)n1-c1ccc(C(=O)O)cc1 | inconclusive [inhibitor, single point] |
| CCn1cc(CCCC(=O)NCc2ccccc2OC)c2ccccc21 | inconclusive [inhibitor, single point] |
| COc1cccc(CN2CCC(C(=O)Nc3ccc(-c4cccc(C)c4)cc3)CC2)c1O | active: 10 µM |
| COc1ccc(C)cc1NC(=O)c1nnn(Cc2cccc(C(F)(F)F)c2)c1N | inconclusive [inhibitor, partial curve] |
| COc1ccc(NC(=O)c2ccco2)cc1NC(=O)COc1ccccc1 | inconclusive [inhibitor, single point] |
| Cc1nc2ccc([N+](=O)[O-])cc2c(=O)n1Cc1ccc(Br)cc1 | inconclusive [inhibitor, single point] |
| CCOc1cccc2cc(C(=O)Oc3ccc(OC)cc3)c(=O)oc12 | inactive |
| CC(=O)NC12CC3CC(C1)CC(C(=O)N(C)CC(=O)Nc1ccccc1Cl)(C3)C2 | inactive |
| COc1ccc(-c2c3c(nc4sc5c(=O)[nH]c(C)nc5c24)CCC3)cc1 | inactive |
| Cc1c(Cc2ccccc2)c(=O)oc2c(C)c(OCC(=O)Nc3ccc(C#N)cc3)ccc12 | inactive |
| CCN(CC)c1ccc(/C=N/NC(=O)c2ccco2)cc1 | inconclusive [inhibitor, partial curve] |
